Source: paper PMC12136788
The list shows a part of the results.

B1: 76004303_76004423_11957_CDS_ENSMUSG00000022565_ENSMUST00000071869|mouse|control|control (ssRNA)
RNA: GGGAGUUCUACAGUCCGACGAUCGAUGGGGUCAAUGACAUAGCCGGUGGCUGCCUGUGCUUCCAGGAGCUCAAAGGCUGUCCCGGGGCGGAUGAUGCCCUUCUUCAUAGCCUGGUACACCGAGAGCCGUUCCUUGGUGGCAUCCAACAGAGGAUUGAGCAUCA
B2: chr14:89307221:89307222:+_ENSG00000165533_ENST00000346301|hu_mus|hu_hu_hu_mus_False|98_108 (ssRNA)
RNA: GGGAGUUCUACAGUCCGACGAUCUCCUGUCUGAUUAGUUCCAGGGAGCUUCAAAGAUGUGCCAGGGCGUGGGACCUGAGCAAUAGCAUUUUCAUCCAGGAUCAUUUCAGCAAUUCCUUCCUGGUCCACAUCAAUUUCAUCUAUCAACAGAGGAUUGAGCAUCA
B3: chr3:58389886:58389887:+_ENSMUSG00000075700_ENSMUST00000107924|mus_hu|FALSE|FALSE (ssRNA)
RNA: GGGAGUUCUACAGUCCGACGAUCCUUGCCAACAAUUAUUAAGCCUAUUAAUACUAGUUUGAAGACUGACAGGAAAGAUGCUAUGUGUCUAUAUAUUGGUUGAGGGAGGUAAUUCUCUCCUUCAAUGCGGAUGUCUGGGUACCGCAACAGAGGAUUGAGCAUCA
B4: 112745453_112760222_1176_CDS_ENSG00000108061_ENST00000369452|human|control|control (ssRNA)
RNA: GGGAGUUCUACAGUCCGACGAUCUGACAGUCUGUUAUAUCUCAGACCAAGACGACUUAAACUGGACAGGUUUCCUAUAGUAUCUGGGAGGUCUAGCAGUUCAUUGUGCUGCAAGUCAAGGUUGGUUAUCUGUGUACAGUUUCCCAACAGAGGAUUGAGCAUCA
B5: chr5:146773137:146773138:-_ENSG00000113657_ENST00000343218|hu_hu|FALSE|FALSE (ssRNA)
RNA: GGGAGUUCUACAGUCCGACGAUCCAUGGAAAUAACGUACGUCAUCAACACAAUAUACAACACCCCUUCCACUCACCUGACCCACCCACCUCCCUCCUACAUGCCCUACCCCAGCCCCUCUGCACCCUCCACCUUGCUCCAGGCCAACAGAGGAUUGAGCAUCA
B6: chr1:150795811:150795812:-_ENSG00000143437_ENST00000358595|hu_hu|FALSE|FALSE (ssRNA)
RNA: GGGAGUUCUACAGUCCGACGAUCCCAUUCUUGGUUCUUAGACCGGAACCGGAACAUGACAGACAGCACUUGGCCUUUUAAUUUCACUACCUGUUGGAAGCUGUCUCUUAGAAGCUGCUGGUCUUCAGGAUGACAGAAUUCUACCAACAGAGGAUUGAGCAUCA
B7: chr1:46159212:46159213:+_ENSG00000159596_ENST00000372025|hu_mus|hu_hu_hu_mus_True|18_58 (ssRNA)
RNA: GGGAGUUCUACAGUCCGACGAUCUCUGAUCCCUCCCAAGAAAGCUAGGAAACCGGCUCCAUAAGCCAUCUGAGUGAAAGCUAAUAUGGGGAUAUAAGACUUUGUUAUUACCAUGAGCAGUGGUGGAGCAGUAAAGGGGAUUAACAACAGAGGAUUGAGCAUCA
B8: chr6:36759938:36759939:-_ENSMUSG00000029838_ENSMUST00000101534|mus_hu|FALSE|FALSE (ssRNA)
RNA: GGGAGUUCUACAGUCCGACGAUCGAGCCUGCAUUUUUGAGUUGGAAACGUCCUCUCUGGCGCUCAGUCUGCCUUUGUUGCAAGGGGCGAGGUUGCUACCGCUGAGUCCAGGUACCCGGCUCGCUGCAGCUCCUGCUUGGGCCGCAACAGAGGAUUGAGCAUCA
B9: chr16:36023280:36023281:+_ENSMUSG00000022905_ENSMUST00000004054|mus_mus|motif|central (ssRNA)
RNA: GGGAGUUCUACAGUCCGACGAUCUGUCUGAAUAUCAUCCCCUGUGACAAUGUUUCCCACAGCCCGCAAAGCAGGAGAAACGGCUUUAUAGUCAUUAUGCAUCAGAAGUUCCACAAGCCUCCUGCAGACUCCUGCAUCGAUGACCAACAGAGGAUUGAGCAUCA
B10: chr1:181699228:181699229:-_ENSMUSG00000026491_ENSMUST00000027768|mus_mus|FALSE|FALSE (ssRNA)
RNA: GGGAGUUCUACAGUCCGACGAUCAAUUUUAGAUAAAACAUUGCUGAUGAACGUAGAUCGGGUUAACACUGUUCCAGUUAUAGCUUUCUUUGGAAAUGCCGAUAACGGUUUGGGUCUAGAAACUUCAUGAAAAACUGAGGAUGUCAACAGAGGAUUGAGCAUCA
B11: chr11:105967523:105967524:+_ENSG00000149313_ENST00000278618|hu_mus|FALSE|FALSE (ssRNA)
RNA: GGGAGUUCUACAGUCCGACGAUCCCAAAAUGAAGGAUCCUCAGGUGUCAUAGGAAUAGCAGAUGCUACCAAAUCAUUAAAAUUAAGAAUGGUAAACUUCCUCUGGGAUAGCUUAGAAUCAUCUUGAUAUGAAACAUUUUGAUGCAACAGAGGAUUGAGCAUCA
B12: chr5:137537078:137537079:-_ENSG00000094880_ENST00000394886|hu_mus|FALSE|FALSE (ssRNA)
RNA: GGGAGUUCUACAGUCCGACGAUCGAAUCCAUCAAGUCCCCGAGCCUGGUGCUUCCGGCUGAGUUCCACUCUCAGUUCUCUGAGAGCCUCGUUUUUGACUUGUCCCUUCUCUAGGGGUCCUAGGCUAUCAACUGUUUCGUCAUCCAACAGAGGAUUGAGCAUCA
B13: 101920281_101920401_2076_3pUTR_ENSMUSG00000017314_ENSMUST00000017458|mouse|control|control (ssRNA)
RNA: GGGAGUUCUACAGUCCGACGAUCGCAGUGUCACGAACCUCCUGACCACAAGGUCCCAAGCAGCUCUGCUCUUCCCUGGACUGGGAAUUACAGGAGUGAUCUGAGACACUCCUAGACACAGCAUGAUCCUUAGAAAAGGGUGUCCAACAGAGGAUUGAGCAUCA
B14: chr6:75965845:75965846:-_ENSG00000112697_ENST00000230461|hu_mus|motif|central (ssRNA)
RNA: GGGAGUUCUACAGUCCGACGAUCAUUUGGUUUCAGAAUAUAAAAUUAAAUGGUGAUGUCAGCAGUGUUACUACUGUUUCGGUAUUUAUGAUUAAUUACUAGCAGUACAACUCCCAGAAGGAAAGAGAUGGAUCCAAUAGUGAUCAACAGAGGAUUGAGCAUCA
B15: chrX:98614190:98614191:-_ENSMUSG00000031310_ENSMUST00000121520|mus_hu|FALSE|FALSE (ssRNA)
RNA: GGGAGUUCUACAGUCCGACGAUCAGGGGGGGCCCAUCCUCGAGUUGGGGCAGUCUGGGAUUCCAGUAGAUCCUCUCCAAAUUCCAUGUCUACUGGUAGGUCUCCAGCCAGGGGCUUCUCUGGCAGGGUCAAUGGGUCAAAUGGCAACAGAGGAUUGAGCAUCA
B16: chr2:174291214:174291215:-_ENSMUSG00000016257_ENSMUST00000016401|mus_mus|FALSE|FALSE (ssRNA)
RNA: GGGAGUUCUACAGUCCGACGAUCUUUUGUUUAGAUCAAAAGUCACAGCCUUACCCCACCUCAUUAAAAAAAAAGAUCUACCUAAAAUAAUUGUGUCUUUUAAAUAACAAAUAAUAUGAUGCCAGCUUGAGAGUCCUGGAGCCCCAACAGAGGAUUGAGCAUCA
B17: 43628485_43644409_965_CDS_ENSG00000112992_ENST00000512996|human|control|control (ssRNA)
RNA: GGGAGUUCUACAGUCCGACGAUCUCCUGGCUUAGUGGUUUCAAAGUUUCCACCAGCCUCAGCAGCUAAAUCCACAACAACUGAACCUUCCUUCAUUGACUCAAUCAUUUCUUUAUUAAAUAAAACUGGAGCUUUUUUACCUGGCAACAGAGGAUUGAGCAUCA
B18: chr5:37680062:37680063:+_ENSMUSG00000029121_ENSMUST00000031004|mus_hu|mus_mus_mus_hu_False|38_48 (ssRNA)
RNA: GGGAGUUCUACAGUCCGACGAUCUUUGGGUGUAGCUGGUACCUCGUACACAGGACCGUCAUACAUGCCCCUGGAAACCCCUUGCAACCCGAAAACCUUGCUUCUGAUUUUGACGCGCUGGUACAGGUGCUCCGGGAACGCCUUCAACAGAGGAUUGAGCAUCA
B19: chr18:51681570:51681571:-_ENSG00000134046_ENST00000256429|hu_mus|FALSE|FALSE (ssRNA)
RNA: GGGAGUUCUACAGUCCGACGAUCUAGAUAUAUACAUCAAAAAUACAUCUAAAAAGGCAUUGGUUAGUGCUAUUAAAAAGCUAUGUGCUCAGGUACACUUUUUCUUACAGGCGAAACCCAGUGGAAAUGUUUUAAUUCUGUUUCCAACAGAGGAUUGAGCAUCA
B20: chr12:113201503:113201504:-_ENSMUSG00000021290_ENSMUST00000021719|mus_mus|FALSE|FALSE (ssRNA)
RNA: GGGAGUUCUACAGUCCGACGAUCCCUGAUUUUAUAUACGAUGAGGCUCAUUAACCCCACUCCUACCCAAAUUUCCUGGUAAACCUGGGUAUAGUAGGGUUUCAUGGGGACCCAGACUUUUUGAAUCAAGGUUUGAAACAUCUCCAACAGAGGAUUGAGCAUCA
B21: chr7:100804371:100804372:+_ENSG00000106367_ENST00000337619|hu_hu|motif|central (ssRNA)
RNA: GGGAGUUCUACAGUCCGACGAUCCUUGCCCUUCCCCCAACCCUUCCUUCCCUCAAAGUGGCAAGGUUAGAAAAAAAUUAACGGUGUUGUUCCUCCCUGGCACUGGAUAAAGGCCCCACUGCAGCCAAGGAGAAAGAGGGGGGUCAACAGAGGAUUGAGCAUCA
B22: chr11:51926749:51926750:+_ENSMUSG00000020349_ENSMUST00000020608|perfect_dup|FALSE|FALSE (ssRNA)
RNA: GGGAGUUCUACAGUCCGACGAUCGUCCACAUAGUCUCCCAUAAACAGGUAAUUUGUAUCUGGUGAUUUACCACCAAUUCUAAAGAGUUCCAUGAGAUCAUGAAAUUGCCCAUGUACAUCUCCACACACAGUGACUGGACAUCGCAACAGAGGAUUGAGCAUCA

target: T1, UNK ZnF1-3 (human, UniProt Q9C0B0 31-174); assay: nsRBNS (natural sequence RNA bind-n-seq); RBNS binding buffer (assumed for nsRBNS): 25 mM Tris pH 7.5, 150 mM KCl, 3 mM MgCl2, 0.01% Triton X-100, 500 ug/ml BSA, 20 U/ml SUPERase-In, 4 C; UNK is unkempt and MSI1 is Musashi-1; names of the RNAs are library labels; protein concentration not given here; high values mean tight binding
T1 sequence: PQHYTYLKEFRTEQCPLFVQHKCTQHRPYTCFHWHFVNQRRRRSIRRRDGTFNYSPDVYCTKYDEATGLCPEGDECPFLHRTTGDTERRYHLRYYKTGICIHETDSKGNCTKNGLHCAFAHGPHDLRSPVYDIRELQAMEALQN

Row | Binder | binding signal [enrichment R]
1 | B1 | 0.908
2 | B2 | 0.747
3 | B3 | 1.26
4 | B4 | 0.952
5 | B5 | 1.44
6 | B6 | 0.846
7 | B7 | 1.94
8 | B8 | 0.561
9 | B9 | 1.21
10 | B10 | 1.03
11 | B11 | 1.18
12 | B12 | 0.49
13 | B13 | 1
14 | B14 | 1.31
15 | B15 | 0.96
16 | B16 | 2.45
17 | B17 | 1.38
18 | B18 | 0.662
19 | B19 | 1.23
20 | B20 | 0.584
21 | B21 | 1.58
22 | B22 | 1.07
